Data: the supplement of paper PMC6531468
This is one part of the list. Values come from read counts of a selection and are noisy. Scores sum up all selected molecules that hold the word; the word was not tested alone.

The sequences below were run on IMP3 KH3-4 (assay: 6-mer SELEX enrichment z-score vs GST control; IMP3 is the RNA-binding protein IGF2BP3; higher = more enriched by binding). Conditions: construct: KH3-4 (377-579); SELEX round: R4.
Procedure: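 SELEX-seq with GST-tagged IMP3 KH3-4 (Pro377-Lys579) and an N40 RNA pool, round 4. 6-mer z-score of sequence-tag enrichment normalised to the corresponding GST SELEX round; RNA k-mers written as DNA (T for U).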

Sequence of IMP3 KH3-4 (chain, as listed by the source): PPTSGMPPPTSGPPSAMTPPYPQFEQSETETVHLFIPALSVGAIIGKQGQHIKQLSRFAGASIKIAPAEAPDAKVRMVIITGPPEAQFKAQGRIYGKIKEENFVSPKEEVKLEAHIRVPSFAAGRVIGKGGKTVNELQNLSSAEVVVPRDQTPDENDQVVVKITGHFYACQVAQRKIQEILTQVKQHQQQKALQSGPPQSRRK

Sequence	6-mer SELEX enrichment z-score
GTCCGC	-0.109
CCGACG	-2.14
CTTATC	0.18
ACCGTT	-0.452
CCATGA	-0.482
AGATCG	0.201
GGCAGG	1.06
CTCCAT	0.096
CGTTTC	-0.453
TACATT	1.92
TGTGCA	0.564
CCGTGA	-0.474
GCGGTT	0.145
TTGCAC	0.342
TCCTCA	-0.129
GCAGCG	-0.425
GATACC	-1.25
TTTCGT	0.316
ATGACA	1.91
TGACGT	-0.617

Sequence	6-mer SELEX enrichment z-score
AATGGC	1.03
CCGGAG	-0.712
CTTCAC	0.038
AACACT	0.679
GTCTGC	-0.11
GATGGA	0.902
AGCAAC	-0.694
GCGACA	-0.514
GACATG	0.561
CTGGCC	-0.286
TGATCG	-0.05
GCCTAA	-0.701
CGTCCG	-0.762
CCAATA	0.1
TGCTTA	0.327
TGGCGT	-0.427
TCCCGC	-0.982
TGTCAC	-0.146
TAGGCC	0.219
ACGTAT	-0.36
